Measurements from the supplement of paper PMC12217912.
The list shows a part of the results. Sequences were assembled here from the parent chain. Values near 0.05 are background.

B1: TEV protease; numbered along this chain (parent)
chain: MGESLFKGPRDYNPISSSICHLTNESDGHTTSLYGIGFGPFIITNKHLFRRNNGTLVVQSLHGVFKVKDTTTLQQHLVDGRDMIIIRMPKDFPPFPQKLKFREPQREERICLVTTNFQTKSMSSMVSDTSCTFPSGDGIFWKHWIQTKDGQCGSPLVSTRDGFIVGIHSASNFTNTNNYFTSVPKNFMELLTNQEAQQWVSGWRLNADSVLWGGHKVFMVKPEEPFQPVKEATQL

Variants of: B1
Experiment: raw area under fraction-flipped curve 0-4 h after induction (AUC4h, not background-subtracted), DNA-recorder readout of cleavage of the substrate (dimensionless); higher = more cleavage of the substrate by the protease variant
Conditions: temperature: 34 °C; time window: 0-4 h after rhamnose induction
Method: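 In vivo DNA recorder in E. coli TOP10(DE3) ΔrhaA at 34 °C. Each TEVp single-site mutant (parent TEVp 0) is paired with a single-site variant of the 7-mer TEVs (canonical ENLYFQ|S). The substrate sits between flexible linkers in a Bxb1-sfGFP-TEVs-SsrA fusion, so cleavage stabilises Bxb1 and speeds flipping of a recombination array, read by NGS. The value is the raw area under the fraction-flipped curve over 0-4 h after rhamnose induction (AUC4h), with ≥20 reads per time point. It is not background-subtracted; inactive controls average about 0.047.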
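Note: Bxb1 expression induced with 0.2% (w/v) L-rhamnose at OD600 near 0.5, cultures sampled hourly, flipped fraction per protease–substrate barcode pair counted by paired-end Illumina sequencing.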

Variant | area with substrate ENAYFQS | area with substrate ENDYFQS | area with substrate ENEYFQS | area with substrate ENFYFQS | area with substrate ENGYFQS | area with substrate ENIYFQS | area with substrate ENKYFQS | area with substrate ENMYFQS | area with substrate ENNYFQS | area with substrate ENPYFQS | area with substrate ENQYFQS | area with substrate ENSYFQS | area with substrate ENTYFQS | area with substrate ENVYFQS | area with substrate ENYYFQS | area with substrate ENCYFQS | area with substrate ENHYFQS | area with substrate ENRYFQS | area with substrate ENWYFQS
MGESLFKGPRDYNPISSSICHLTNESDGHTTSLYGIGFGPFIITNKHLFRRNNGTLVVQSLHGVFKVKDTTTLQQHLVDGRDMIIIRMPKDFPPFPQKLKFREPQREERICLVTTNFQTKSMSSMVSDTSCTFPSGDGIFWKHWIQTKDGQCGSPLVSTRDPFIVGIHSASNFTNTNNYFTSVPKNFMELLTNQEAQQWVSGWRLNADSVLWGGHKVFMVKPEEPFQPVKEATQL [G162P] | 0.0562 | 0.0327 | 0.0581 | 0.0382 | 0.061 | 0.0631 | 0.0534 | 0.0283 | 0.0536 | 0.049 | 0.0431 | 0.0701 | 0.0469 | 0.0555 | 0.0435 |  |  |  | 
MGESLFKGPRDYNPISSSICHLTNESDGHTTSLYGIGFGPFIITNKHLFRRNNGTLVVQSLHGVFKVKDTTTLQQHLVDGRDMIIIRMPKDFPPFPQKLKFREPQREERICLVTTNFQTKSMSSMVSDTSCTFPSGDGIFWKHWIQTKDGQCGSPLVSTRDGFITGIHSASNFTNTNNYFTSVPKNFMELLTNQEAQQWVSGWRLNADSVLWGGHKVFMVKPEEPFQPVKEATQL [V165T] | 0.0479 | 0.0656 | 0.0638 | 0.0501 | 0.055 | 0.0623 | 0.0548 | 0.0611 | 0.0535 | 0.0699 | 0.0607 |  | 0.0367 | 0.0608 |  | 0.0566 | 0.0563 | 0.0467 | 
MGESLFKGPRDYNPISSSICHLTNESDGHTTSLYGIGFGPFIITNKHLFRRNNGTLVVQSLHGVFKVKDTTTLQQHLVDGRDMIIIRMPKDFPPFPQKLKFREPQREERICLVTTNFQTKSMSSMVSDTSCTFPSGDGIFWKHWIQTKDGQCGSPLVSTRDGFIRGIHSASNFTNTNNYFTSVPKNFMELLTNQEAQQWVSGWRLNADSVLWGGHKVFMVKPEEPFQPVKEATQL [V165R] | 0.0577 | 0.0529 | 0.0406 | 0.0481 |  | 0.0444 | 0.0596 | 0.0526 | 0.0461 |  | 0.057 | 0.0522 | 0.0463 | 0.0604 |  | 0.0743 | 0.0565 | 0.0372 | 
MGESLFKGPRDYNPISSSICHLTNESDGHTTSLYGIGFGPFIITNKHLFRRNNGTLVVQSLHGVFKVKDTTTLQQHLVDGRDMIIIRMPKDFPPFPQKLKFREPQREERICLVTTNFQTKSMSSMVSDTSCTFPSGDGIFWKHWIQTKDGQCGSPLVSTRDGFIVMIHSASNFTNTNNYFTSVPKNFMELLTNQEAQQWVSGWRLNADSVLWGGHKVFMVKPEEPFQPVKEATQL [G166M] | 0.0463 |  | 0.0635 | 0.0457 |  |  |  | 0.0353 |  |  | 0.0377 | 0.0543 | 0.0565 | 0.0582 |  | 0.0289 | 0.0436 |  | 0.0359
MGESLFKGPRDYNPISSSICHLTNESDGHTTSLYGIGFGPFIITNKHLFRRNNGTLVVQSLHGVFKVKDTTTLQQHLVDGRDMIIIRMPKDFPPFPQKLKFREPQREERICLVTTNFQTKSMSSMVSDTSCTFPSGDGIFWKHWIQTKDGQCGSPLVSTRDGFIVDIHSASNFTNTNNYFTSVPKNFMELLTNQEAQQWVSGWRLNADSVLWGGHKVFMVKPEEPFQPVKEATQL [G166D] | 0.0498 | 0.0538 | 0.0657 | 0.0568 | 0.0525 | 0.0412 | 0.0452 | 0.0586 | 0.0422 | 0.059 | 0.0501 | 0.0499 | 0.0459 | 0.0484 | 0.0431 | 0.055 |  | 0.0469 | 0.004
MGESLFKGPRDYNPISSSICHLTNESDGHTTSLYGIGFGPFIITNKHLFRRNNGTLVVQSLHGVFKVKDTTTLQQHLVDGRDMIIIRMPKDFPPFPQKLKFREPQREERICLVTTNFQTKSMSSMVSDTSCTFPSGDGIFWKHWIQTKDGQCGSPLVSTRDGFIVAIHSASNFTNTNNYFTSVPKNFMELLTNQEAQQWVSGWRLNADSVLWGGHKVFMVKPEEPFQPVKEATQL [G166A] | 0.0341 | 0.0425 | 0.05 | 0.0419 | 0.0557 | 0.0523 | 0.0571 |  | 0.0499 | 0.0467 | 0.03 | 0.0515 |  | 0.0461 |  | 0.049 | 0.0463 |  | 0.0352
MGESLFKGPRDYNPISSSICHLTNESDGHTTSLYGIGFGPFIITNKHLFRRNNGTLVVQSLHGVFKVKDTTTLQQHLVDGRDMIIIRMPKDFPPFPQKLKFREPQREERICLVTTNFQTKSMSSMVSDTSCTFPSGDGIFWKHWIQTKDGQCGSPLVSTRAGFIVGIHSASNFTNTNNYFTSVPKNFMELLTNQEAQQWVSGWRLNADSVLWGGHKVFMVKPEEPFQPVKEATQL [D161A] | 0.0567 | 0.0611 | 0.0518 |  | 0.0534 |  |  | 0.0569 |  | 0.0652 | 0.0561 | 0.0569 |  | 0.0465 |  | 0.0593 | 0.0587 | 0.061 | 
MGESLFKGPRDYNPISSSICHLTNESDGHTTSLYGIGFGPFIITNKHLFRRNNGTLVVQSLHGVFKVKDTTTLQQHLVDGRDMIIIRMPKDFPPFPQKLKFREPQREERICLVTTNFQTKSMSSMVSDTSCTFPSGDGIFWKHWIQTKDGQCGSPLVSTRDGFIVGIHSASNFTNTNNYFTSVPGNFMELLTNQEAQQWVSGWRLNADSVLWGGHKVFMVKPEEPFQPVKEATQL [K185G] | 0.0575 | 0.0549 |  | 0.0647 | 0.0714 | 0.0906 | 0.039 |  |  |  | 0.0537 | 0.0675 |  |  | 0.0635 | 0.076 | 0.0609 |  | 0.0456
MGESLFKGPRDYNPISSSICHLTNESDGHTTSLYGIGFGPFIITNKHLFRRNNGTLVVQSLHGVFKVKDTTTLQQHLVDGRDMIIIRMPKDFPPFPQKLKFREPQREERICLVTTNFQTKSMSSMVSDTSCTFPSGDGIFWKHWIQTKDGQCGSPLVSTRDGFIVGIHSASNFTNTNNYFTSVPKNMMELLTNQEAQQWVSGWRLNADSVLWGGHKVFMVKPEEPFQPVKEATQL [F187M] | 0.0655 | 0.0543 |  | 0.0602 | 0.0401 | 0.102 |  |  | 0.0676 |  | 0.0493 | 0.0577 | 0.0654 | 0.0846 | 0.0658 |  | 0.0722 | 0.0534 | 
